# From PubChem BioAssay (NCI)
# Some compounds were tested as several samples or in several runs, with calls that do not always agree.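 Each cell line was grown in a 96-well plate and treated with one concentration of compound for 48 hours. Values below 10 were considered active.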 Certain results were filed several times, with different values. The other results are left out here. An entry can have further records. The screen tested this drug many times, at its own concentration, as given; one value stands for one run. Counts like (3×) count equal records among those shown.
# Key:
# M14 melanoma = assay: NCI-60 one-dose screen, 48 h (100 = growth as untreated, 0 = no growth, -100 = all killed); settings: 25 µM
# HCT-15 colon = assay: as above; settings: 0.25 µM
structure (smiles),measurement,setting,value
COc1cccc2c1C(=O)c1c(O)c3c(c(O)c1C2=O)C[C@@](O)(C(=O)CO)C[C@@H]3OC1CC(N)C(O)C(C)O1 (stereo not given in full),growth,M14 melanoma; runs of 1992,"active: -100 (23×), -91.6, -99.8 (4×), -99.6, -99 (2×), -96 (2×), -98.6, -85.8, -93.9 (2×), -63.3, -98.3 (3×), -60.4, -93.6, -91.9, -98 (2×), -81, -94.5, -90.4 (2×), -95.4 (2×), -85.2, -96.8, -67.7, -80, -96.2, -75, -97.4, -92.7, -97.5 (2×), -98.7 (3×), -93.4 (2×), -93.2, -89.8, -80.7, -68.3, -69.4, -80.9, -93.8, -89.3, -95, -95.7, -96.5, -98.5 (2×), -94.4, -84.9, -84, -97.3, -93.1, -99.7, -89.5, -57.9, -90.2, -84.7 (2×), -87.8, -99.3, -98.4, -55.2, -98.9 (2×), -97.1 (2×), -92.9, -87.4, -97.8 (2×), -96.9, -75.3, -94.2, -89.1, -90.9, -99.4, -82.9, -98.8, -86.6, -60.1, -21, -96.1, -79.9, -96.7, -91.4, -74.8%"
same,growth,M14 melanoma; runs of 1993,"active: -61.3, -53.8, 6.03, -94.5, -79.5, -91.6, -66.9, -66.7 (2×), -96.9, -100 (6×), -84.6, -89, -90.8, -78.3, -87.7, -83.1, -99, -93.4, -87, -78.7, -23.4, -85.9, -99.6, -71.2, -82.9, -50.6, -55.6, -81.2, -57.8, -82, -78, -93, -66.4, -98.4, -68.6, -97.9, -94.4, -77.6, -96.5, -96.3, -93.2% and inactive: 15.1%"
same,growth,M14 melanoma; runs of 1994,"active: -70.6, -99.5, -94.6, -99.6, -95.5, -100 (4×), -77.9, -98.8, -83.4, -90.3, -96, -31.1, -29.1, -89.3, -63.7, -88.7, -93.7, -87, -88.2, -43.4, -89.8, -92.6 (2×), -99, -82.8, -71, -70.2, -28% and inactive: 94.7%"
same,growth,M14 melanoma; runs of 1995,"active: -63, -100 (8×), -64.2, -71.3, -73.6, -97.9, -49.2, -92.5, -98.8, -71.6, -86.4, -98.1, -94.1 (2×), -64.4, -97.1, -98.7, -77.7, -92.6, -87.3, -57.8, -98.3, -47.6, -97.2 (2×), -27.4, -62.6, -58.3, -79.3%"
same,growth,M14 melanoma; runs of 1996,"active: -20.6, -35.6, -98.5, -94, -69.2, -99 (2×), -87.7, -94.9, -80.6, -99.4 (2×), -97.5, -69.4, -30.4, -98.9, -100 (4×), -66.8, -93.4, -94.5, -60.9, -30.9, -99.2, -63.8, -66.4, -77.9, -75.2, -63.4, -65.9, -34.5, -70.5, -26.8, -55.5, -89.8, -82.9, -83.5, -93.8, -96.8, -56, -86, -71.4, -98.2, -86.5, -96, -97.7, -62.4, -95.4, -86.4, -50, -64.4, -28.3, -49.2% and inactive: 96.3%, 129%"
same,growth,M14 melanoma; runs of 1997,"active: -91.1, 7.18, -65.3, -93.1, -100 (4×), -97.4, -53.8, -99, -98, -87.4, -98.2, -88.5, -95.8, -77.8, -98.8, -44.9, -93.4, -85.6 (2×), -98.9, -92.2, -47.8, -94.6, -89.7, -88.1 (2×), -90, -98.4, -81.3, -90.3, -79.8, -87.5, -91.4, -75.9, -34.3, -86.7, -86.9, 5.64, -97.2, -83.8, -88.9, -11.5, -94.7%"
same,growth,M14 melanoma; runs of 1998,"active: -96.4, -87.3, -95.4, -100 (5×), -89.7 (2×), -7.96, -94.7, -86.8, -92.9, -74.3, -91.3, -95.3, -96.3, -87.5, -91.1, -76.8, -79.2, -78.8, -94.3, -82, -92%"
same,growth,M14 melanoma; runs of 1999,"active: -85.8, -94.7, -45.6, -87.9, -98.4, -100 (5×), -88.3, -68.4, -96.3, -59.2, 3.54, -70.2, -68, -68.6%"
same,growth,M14 melanoma; runs of 2000,"inactive: 12.6% and active: -100%, -34.7%, -85.2%"
same,growth,HCT-15 colon; runs of 2006,"inactive: 65.6%, 78.4%"
same,growth,HCT-15 colon; runs of 2007,"inactive: 79.2, 98.3, 76.2, 84.1, 87.5, 83.5 (2×), 86.6, 84.5, 90.5, 93.7, 95.8, 92.9, 96.6, 110, 90.1, 82.6, 92, 81.4, 87, 77.3, 87.2, 85.1, 85.7, 88.2 (2×), 77.2, 88.5 (2×), 89.8 (2×), 90.6, 94.6, 91.2 (2×), 86, 89.3, 90.4, 88.4 (2×), 81.3, 82.9, 87.7% and active: 8.2%"
same,growth,HCT-15 colon; runs of 2008,"inactive: 91.2, 94.8, 92.1 (2×), 82.6, 83.9 (3×), 87.3, 87.9, 80.7, 82.1, 87.6 (3×), 89.6, 92.3 (2×), 89.4, 85.7 (2×), 90.6, 82.8, 86.4, 86.8, 84.8 (2×), 83, 82.9 (2×), 93.4, 85.2, 104, 84.9, 83.3, 69.7, 86.3, 90.2, 84.6, 96.1, 92, 96.3, 95, 86, 95.6, 83.5, 77, 95.2, 73, 82.7, 88.5%"
same,growth,HCT-15 colon; runs of 2009,"inactive: 82.2 (2×), 84.8, 91 (2×), 80.7, 81.3, 87.5, 86.8 (2×), 88.2, 85.3, 82.9, 84.5 (2×), 91.1, 83.3 (2×), 88, 85.5, 93.6, 86.9, 85.9, 86.3, 93.4, 86.7, 84, 87.8, 87, 78, 84.4, 79.8, 81.9, 95.6, 85.6, 75.7, 81.2, 87.7, 82.7, 76.4, 91.3, 86, 81.4, 84.9, 86.5, 86.6 (2×), 94.1, 109, 81.6, 83.4, 98.9, 95, 90.9, 77.2 (2×), 80.6, 80, 76.9, 92.2, 85.1, 78.4, 89.2, 80.8, 85.7, 87.3, 83.7, 83.6%"
same,growth,HCT-15 colon; runs of 2010,"inactive: 88.3, 84.6, 84.3, 88, 84.9, 90.4, 87.9, 83.5 (3×), 84.4, 87, 82.7, 81.4, 76.1, 80 (2×), 89.1, 90.7, 86.6, 85.7, 81.8 (2×), 91.4, 84.5, 92.7, 78.9, 81.1, 77.1, 82.8, 63.7, 80.6, 69.4, 76.9, 80.7, 79, 87.6, 88.5, 83, 80.8, 81.9, 82.6, 80.4, 85.5, 84.8, 82.3, 79.7, 76, 85.6, 90.9, 96.2%"
same,growth,HCT-15 colon; runs of 2011,"inactive: 86, 83, 83.4, 81.8, 85.5, 81.9 (2×), 79.1, 90.9, 81, 86.7, 87.1, 84 (2×), 88.5, 92.5, 94.6 (2×), 92.3, 90.1, 95.9, 97, 91.1 (2×), 86.3 (2×), 87.2 (3×), 94.3, 93.1, 85.9 (2×), 82.8, 85.3 (2×), 78.7, 80.1, 88.4, 91.6, 90.2, 87.6 (2×), 86.2 (2×), 89, 85.1, 80.7, 86.6, 89.3, 90, 87.8, 88.3, 83.1, 86.5, 85.6, 80.2%"
